{"source": "paper PMC12700831", "about": "“Molecular basis for the activation of outer dynein arms in cilia” (Nature Structural & Molecular Biology, 2025)", "binders": {"B1": {"name": "human ARL[…]L (His tag) (natural protein)", "chain": "not shown", "notes": "human ARL3, GTP-locked variant; also called GTP-locked ARL3; QL variant; source: bacteria (pET22b(+), periplasmic expression), purified (Ni-NTA, Superdex 200 gel filtration)"}}, "target": "T1, recombinant human C20ORF194/DNAAF9 (human, UniProt Q5TEA3 1-1177)", "T1 construct": "human C20ORF194/DNAAF9, codon-optimized synthetic gene in pACEBac1; also called human Shulin; source: Sf9, purified (Strep-Trap, Superdex 200 gel filtration)", "T1 sequence (Q5TEA3 whole entry)": "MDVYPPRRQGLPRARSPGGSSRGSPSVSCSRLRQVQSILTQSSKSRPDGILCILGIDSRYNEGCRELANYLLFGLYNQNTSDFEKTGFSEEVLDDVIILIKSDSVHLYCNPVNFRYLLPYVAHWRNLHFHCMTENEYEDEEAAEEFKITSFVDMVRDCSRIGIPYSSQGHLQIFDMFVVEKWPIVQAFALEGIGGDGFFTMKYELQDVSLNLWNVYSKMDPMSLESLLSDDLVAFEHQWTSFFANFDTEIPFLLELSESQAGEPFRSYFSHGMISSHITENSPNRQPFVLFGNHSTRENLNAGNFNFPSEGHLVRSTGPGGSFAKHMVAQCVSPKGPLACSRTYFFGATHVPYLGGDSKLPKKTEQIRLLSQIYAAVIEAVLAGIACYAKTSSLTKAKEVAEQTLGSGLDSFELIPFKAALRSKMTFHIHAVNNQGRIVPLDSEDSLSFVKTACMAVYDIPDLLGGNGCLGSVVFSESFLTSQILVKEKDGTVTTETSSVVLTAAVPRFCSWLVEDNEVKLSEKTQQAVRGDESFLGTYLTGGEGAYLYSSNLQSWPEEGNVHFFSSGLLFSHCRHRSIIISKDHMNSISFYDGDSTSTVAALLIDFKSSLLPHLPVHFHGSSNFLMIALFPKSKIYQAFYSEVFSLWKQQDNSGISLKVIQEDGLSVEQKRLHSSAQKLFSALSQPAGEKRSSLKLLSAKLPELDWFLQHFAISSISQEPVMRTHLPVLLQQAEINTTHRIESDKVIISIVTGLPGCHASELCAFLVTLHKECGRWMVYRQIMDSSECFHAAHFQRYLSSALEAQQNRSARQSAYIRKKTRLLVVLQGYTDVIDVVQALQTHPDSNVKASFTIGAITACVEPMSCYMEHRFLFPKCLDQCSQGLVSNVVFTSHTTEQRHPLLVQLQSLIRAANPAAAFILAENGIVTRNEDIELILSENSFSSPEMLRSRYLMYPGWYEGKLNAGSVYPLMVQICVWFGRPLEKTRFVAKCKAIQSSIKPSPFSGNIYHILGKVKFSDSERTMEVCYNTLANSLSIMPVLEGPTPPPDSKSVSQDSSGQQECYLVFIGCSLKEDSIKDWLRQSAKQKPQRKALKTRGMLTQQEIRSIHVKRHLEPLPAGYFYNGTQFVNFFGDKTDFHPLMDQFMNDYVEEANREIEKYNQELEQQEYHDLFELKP", "assay": "SEC; Shulin or DNAAF9 with fourfold molar excess of Arl3 or ARL3 variants, 30 min on ice, 1 mM GDP or 1 mM GTP, Superdex 200 increase 3.2/300; coelution by SDS–PAGE", "conditions": "both partners purified"}
{"binder": "B1", "values": [{"measurement": "binding result", "result": "binds"}]}
